{"source": "the supplement of paper PMC8728848", "binders": {"B1": {"name": "PX9896A-bth-573-26-573 (Bacteroides thetaiotaomicron) (protein)", "chain": "ETNNLKTKEDMYKYFGTSKSMLTHVYSYMPQGYQLFATSGGIFTEDRYSMRDCASDDGEFGAYADNIQNTNNGNWSPIKTYDDSWTLYRGIRAANSFIAEIAQVDFTRYEHDGQYTNWMKQLKYFPYEARVLRAHYFFELARRYGDIAMPLEVLTEEEANTIGKTPFSEVISFIVSECDDAANNLPDSYVNEPGAEIGRVTKGFAMAVKSKALLYAASKLHNPSMDTELWKKSAKAAIDIINTGLYSLDPQESANNLDSKEVVLMRINGDDSDFEMFNLPLRMTAGTRTSSLIPYSNYPSQNLVDAFETVNGYKVTLENTGWVCEDPAFDPQSPYENRDKRFYRAILANGMSFKDYTIETFKGGADDGIVSQGGSPTGYFLRKYIQEATSFEPGKEAVSKHHWVIYRYAETLLTYAESMVNAFNDVNYTDETYKYSALWAINEVRKNADMPLIPSMGKDEFMERLYNEWRVEFAFEDHRFWDVRRWKIADTTQRELYGVKIEKQADGTFNFYKNLYETRNWRDCMYLYPIPQSELYKNTNLNPQNTGW"}}, "assay_in_all_cases": "glycan array binding signal (z-score within array); higher = stronger binding", "conditions_in_all_cases": "glycan notation: IUPAC condensed, linker removed", "key": {"[1]": {"target": "Gal(b1-4)Glc", "how_it_was_run": "(§1)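 The binding signal is a Z-score computed within each array and averaged over linkers. Arrays of the same protein sequence at different concentrations or buffers were also averaged together. Data originate from 3228 arrays in the Consortium for Functional Glycomics database, kept only where the protein sequence was available.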"}, "[2]": {"target": "Gal(b1-4)Glc6S", "how_it_was_run": "as §1"}, "[3]": {"target": "Gal(b1-4)GlcNAc", "how_it_was_run": "as §1"}, "[4]": {"target": "Gal(b1-4)GlcNAc(a1-6)Gal(b1-4)GlcNAc", "how_it_was_run": "as §1"}, "[5]": {"target": "Gal(b1-4)GlcNAc(b1-2)Man", "how_it_was_run": "as §1"}, "[6]": {"target": "Gal(b1-4)GlcNAc(b1-2)Man(a1-3)Man(b1-4)GlcNAc(b1-4)GlcNAc", "how_it_was_run": "as §1"}, "[7]": {"target": "Gal(b1-4)GlcNAc(b1-2)Man(a1-3)[Gal(b1-4)GlcNAc(b1-2)Man(a1-6)]Man(b1-4)GlcNAc(b1-4)GlcNAc", "how_it_was_run": "as §1"}, "[8]": {"target": "Gal(b1-4)GlcNAc(b1-2)Man(a1-3)[Gal(b1-4)GlcNAc(b1-2)Man(a1-6)]Man(b1-4)GlcNAc(b1-4)[Fuc(a1-6)]GlcNAc", "how_it_was_run": "as §1"}, "[9]": {"target": "Gal(b1-4)GlcNAc(b1-2)Man(a1-3)[Gal(b1-4)GlcNAc(b1-2)Man(a1-6)][Gal(b1-4)GlcNAc(b1-4)]Man(b1-4)GlcNAc(b1-4)[Fuc(a1-6)]GlcNAc", "how_it_was_run": "as §1"}, "[10]": {"target": "Gal(b1-4)GlcNAc(b1-2)Man(a1-3)[Gal(b1-4)GlcNAc(b1-2)Man(a1-6)][GlcNAc(b1-4)]Man(b1-4)GlcNAc(b1-4)[Fuc(a1-6)]GlcNAc", "how_it_was_run": "as §1"}, "[11]": {"target": "Gal(b1-4)GlcNAc(b1-2)Man(a1-3)[GlcNAc(b1-2)Man(a1-6)]Man(b1-4)GlcNAc(b1-4)GlcNAc", "how_it_was_run": "as §1"}, "[12]": {"target": "Gal(b1-4)GlcNAc(b1-2)Man(a1-3)[GlcNAc(b1-4)][Gal(b1-4)GlcNAc(b1-2)Man(a1-6)]Man(b1-4)GlcNAc(b1-4)GlcNAc", "how_it_was_run": "as §1"}, "[13]": {"target": "Gal(b1-4)GlcNAc(b1-2)Man(a1-3)[Man(a1-6)]Man(b1-4)GlcNAc(b1-4)GlcNAc", "how_it_was_run": "as §1"}, "[14]": {"target": "Gal(b1-4)GlcNAc(b1-2)Man(a1-6)Man(b1-4)GlcNAc(b1-4)GlcNAc", "how_it_was_run": "as §1"}, "[15]": {"target": "Gal(b1-4)GlcNAc(b1-2)Man(a1-6)[GlcNAc(b1-2)Man(a1-3)]Man(b1-4)GlcNAc(b1-4)GlcNAc", "how_it_was_run": "as §1"}, "[16]": {"target": "Gal(b1-4)GlcNAc(b1-2)Man(a1-6)[Man(a1-3)]Man(b1-4)GlcNAc(b1-4)GlcNAc", "how_it_was_run": "as §1"}, "[17]": {"target": "Gal(b1-4)GlcNAc(b1-2)[Gal(b1-4)GlcNAc(b1-4)]Man(a1-3)[Gal(b1-4)GlcNAc(b1-2)Man(a1-6)]Man(b1-4)GlcNAc(b1-4)GlcNAc", "how_it_was_run": "as §1"}, "[18]": {"target": "Gal(b1-4)GlcNAc(b1-2)[Gal(b1-4)GlcNAc(b1-4)]Man(a1-3)[Gal(b1-4)GlcNAc(b1-2)[Gal(b1-4)GlcNAc(b1-6)]Man(a1-6)]Man(b1-4)GlcNAc(b1-4)GlcNAc", "how_it_was_run": "as §1"}, "[19]": {"target": "Gal(b1-4)GlcNAc(b1-2)[Gal(b1-4)GlcNAc(b1-4)]Man(a1-3)[GlcNAc(b1-4)][Gal(b1-4)GlcNAc(b1-2)Man(a1-6)]Man(b1-4)GlcNAc(b1-4)GlcNAc", "how_it_was_run": "as §1"}, "[20]": {"target": "Gal(b1-4)GlcNAc(b1-2)[Gal(b1-4)GlcNAc(b1-4)]Man(a1-3)[GlcNAc(b1-4)][Gal(b1-4)GlcNAc(b1-2)[Gal(b1-4)GlcNAc(b1-6)]Man(a1-6)]Man(b1-4)GlcNAc(b1-4)GlcNAc", "how_it_was_run": "as §1"}, "[21]": {"target": "Gal(b1-4)GlcNAc(b1-2)[Gal(b1-4)GlcNAc(b1-6)]Man(a1-6)[Gal(b1-4)GlcNAc(b1-2)Man(a1-3)]Man(b1-4)GlcNAc(b1-4)GlcNAc", "how_it_was_run": "as §1"}, "[22]": {"target": "Gal(b1-4)GlcNAc(b1-2)[Gal(b1-4)GlcNAc(b1-6)]Man(a1-6)[Gal(b1-4)GlcNAc(b1-2)Man(a1-3)]Man(b1-4)GlcNAc(b1-4)[Fuc(a1-6)]GlcNAc", "how_it_was_run": "as §1"}, "[23]": {"target": "Gal(b1-4)GlcNAc(b1-2)[Gal(b1-4)GlcNAc(b1-6)]Man(a1-6)[GlcNAc(b1-4)][Gal(b1-4)GlcNAc(b1-2)Man(a1-3)]Man(b1-4)GlcNAc(b1-4)GlcNAc", "how_it_was_run": "as §1"}, "[24]": {"target": "Gal(b1-4)GlcNAc(b1-2)[Gal(b1-4)GlcNAc(b1-6)]Man(a1-6)[GlcNAc(b1-4)][Gal(b1-4)GlcNAc(b1-2)[Gal(b1-4)GlcNAc(b1-4)]Man(a1-3)]Man(b1-4)GlcNAc(b1-4)[Fuc(a1-6)]GlcNAc", "how_it_was_run": "as §1"}, "[25]": {"target": "Gal(b1-4)GlcNAc(b1-3)Gal(b1-3)GalNAc", "how_it_was_run": "as §1"}, "[26]": {"target": "Gal(b1-4)GlcNAc(b1-3)Gal(b1-3)GlcNAc", "how_it_was_run": "as §1"}, "[27]": {"target": "Gal(b1-4)GlcNAc(b1-3)Gal(b1-4)Glc", "how_it_was_run": "as §1"}, "[28]": {"target": "Gal(b1-4)GlcNAc(b1-3)Gal(b1-4)GlcNAc", "how_it_was_run": "as §1"}, "[29]": {"target": "Gal(b1-4)GlcNAc(b1-3)Gal(b1-4)GlcNAc(b1-2)Man(a1-3)[Gal(b1-4)GlcNAc(b1-3)Gal(b1-4)GlcNAc(b1-2)Man(a1-6)]Man(b1-4)GlcNAc(b1-4)GlcNAc", "how_it_was_run": "as §1"}, "[30]": {"target": "Gal(b1-4)GlcNAc(b1-3)Gal(b1-4)GlcNAc(b1-2)Man(a1-3)[Gal(b1-4)GlcNAc(b1-3)Gal(b1-4)GlcNAc(b1-2)Man(a1-6)]Man(b1-4)GlcNAc(b1-4)[Fuc(a1-6)]GlcNAc", "how_it_was_run": "as §1"}}, "note": "This is one part of the list."}
{"binder": "B1", "values": [{"measurement": "glycan array binding signal (z-score)", "setting": "[1]", "value": -0.15}, {"measurement": "glycan array binding signal (z-score)", "setting": "[2]", "value": -0.111}, {"measurement": "glycan array binding signal (z-score)", "setting": "[3]", "value": -0.146}, {"measurement": "glycan array binding signal (z-score)", "setting": "[4]", "value": -0.94}, {"measurement": "glycan array binding signal (z-score)", "setting": "[5]", "value": 0.175}, {"measurement": "glycan array binding signal (z-score)", "setting": "[6]", "value": 1.24}, {"measurement": "glycan array binding signal (z-score)", "setting": "[7]", "value": -0.399}, {"measurement": "glycan array binding signal (z-score)", "setting": "[8]", "value": -0.077}, {"measurement": "glycan array binding signal (z-score)", "setting": "[9]", "value": -0.452}, {"measurement": "glycan array binding signal (z-score)", "setting": "[10]", "value": -0.216}, {"measurement": "glycan array binding signal (z-score)", "setting": "[11]", "value": 3.74}, {"measurement": "glycan array binding signal (z-score)", "setting": "[12]", "value": -0.734}, {"measurement": "glycan array binding signal (z-score)", "setting": "[13]", "value": 0.862}, {"measurement": "glycan array binding signal (z-score)", "setting": "[14]", "value": -0.437}, {"measurement": "glycan array binding signal (z-score)", "setting": "[15]", "value": 4.65}, {"measurement": "glycan array binding signal (z-score)", "setting": "[16]", "value": -0.389}, {"measurement": "glycan array binding signal (z-score)", "setting": "[17]", "value": -1.03}, {"measurement": "glycan array binding signal (z-score)", "setting": "[18]", "value": -0.212}, {"measurement": "glycan array binding signal (z-score)", "setting": "[19]", "value": -0.191}, {"measurement": "glycan array binding signal (z-score)", "setting": "[20]", "value": 0.745}, {"measurement": "glycan array binding signal (z-score)", "setting": "[21]", "value": -0.697}, {"measurement": "glycan array binding signal (z-score)", "setting": "[22]", "value": 0.144}, {"measurement": "glycan array binding signal (z-score)", "setting": "[23]", "value": 0.116}, {"measurement": "glycan array binding signal (z-score)", "setting": "[24]", "value": 0.323}, {"measurement": "glycan array binding signal (z-score)", "setting": "[25]", "value": -0.185}, {"measurement": "glycan array binding signal (z-score)", "setting": "[26]", "value": -0.444}, {"measurement": "glycan array binding signal (z-score)", "setting": "[27]", "value": -0.849}, {"measurement": "glycan array binding signal (z-score)", "setting": "[28]", "value": 0.214}, {"measurement": "glycan array binding signal (z-score)", "setting": "[29]", "value": 1.77}, {"measurement": "glycan array binding signal (z-score)", "setting": "[30]", "value": -0.438}]}
